The list shows a part of the results.
Assays:
Test in all cases: glycan array binding signal (z-score within array); higher = stronger binding
Conditions in all cases: glycan notation: IUPAC condensed, linker removed
GlcNAc(b1-3)Gal(b1-4)Glc = target: GlcNAc(b1-3)Gal(b1-4)Glc
Outline: (§1)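 The binding signal is a Z-score computed within each array. Data were drawn from 3228 arrays in the Consortium for Functional Glycomics database, restricted to those with a known protein sequence. Scores were averaged over arrays of the same protein sequence at different concentrations or buffers, and over linkers, and negative values can be taken as non-binding.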

[1] = target: GlcNAc(b1-3)Gal(b1-4)GlcNAc
Outline: as §1

[2] = target: GlcNAc(b1-3)Gal(b1-4)GlcNAc(b1-3)Gal(b1-4)GlcNAc
Outline: as §1

GlcNAc(b1-3)GalNAc = target: GlcNAc(b1-3)GalNAc
Outline: as §1

GlcNAc(b1-3)Man = target: GlcNAc(b1-3)Man
Outline: as §1

[3] = target: GlcNAc(b1-3)[GlcNAc(b1-4)][GlcNAc(b1-6)]GlcNAc
Outline: as §1

[4] = target: GlcNAc(b1-3)[GlcNAc(b1-6)]Gal(b1-4)GlcNAc
Outline: as §1

[5] = target: GlcNAc(b1-3)[GlcNAc(b1-6)]GalNAc
Outline: as §1

[6] = target: GlcNAc(b1-4)Gal(b1-4)GlcNAc
Outline: as §1

GlcNAc(b1-4)GlcNAc = target: GlcNAc(b1-4)GlcNAc
Outline: as §1

[7] = target: GlcNAc(b1-4)GlcNAc(b1-4)GlcNAc
Outline: as §1

[8] = target: GlcNAc(b1-4)GlcNAc(b1-4)GlcNAc(b1-4)GlcNAc(b1-4)GlcNAc
Outline: as §1

[9] = target: GlcNAc(b1-4)GlcNAc(b1-4)GlcNAc(b1-4)GlcNAc(b1-4)GlcNAc(b1-4)GlcNAc
Outline: as §1

[10] = target: GlcNAc(b1-4)[GlcNAc(b1-6)]GalNAc
Outline: as §1

[11] = target: GlcNAc(b1-6)Gal(b1-4)GlcNAc
Outline: as §1

GlcNAc(b1-6)GalNAc = target: GlcNAc(b1-6)GalNAc
Outline: as §1

GlcNAc3Prop(b1-4)GlcNAc = target: GlcNAc3Prop(b1-4)GlcNAc
Outline: as §1

Kdn(a2-3)Gal(b1-3)GlcNAc = target: Kdn(a2-3)Gal(b1-3)GlcNAc
Outline: as §1

Kdn(a2-3)Gal(b1-4)GlcNAc = target: Kdn(a2-3)Gal(b1-4)GlcNAc
Outline: as §1

[12] = target: Man(a1-2)Man(a1-2)Man(a1-3)Man
Outline: as §1

[13] = target: Man(a1-2)Man(a1-2)Man(a1-6)[Man(a1-3)]Man
Outline: as §1

Man(a1-2)Man(a1-3)Man = target: Man(a1-2)Man(a1-3)Man
Outline: as §1

[14] = target: Man(a1-2)Man(a1-3)[Man(a1-2)Man(a1-6)]Man
Outline: as §1

[15] = target: Man(a1-2)Man(a1-3)[Man(a1-2)Man(a1-6)]Man(a1-6)[Man(a1-2)Man(a1-2)Man(a1-3)]Man
Outline: as §1

[16] = target: Man(a1-2)Man(a1-3)[Man(a1-2)Man(a1-6)]Man(a1-6)[Man(a1-2)Man(a1-2)Man(a1-3)]Man(b1-4)GlcNAc(b1-4)GlcNAc
Outline: as §1

[17] = target: Man(a1-2)Man(a1-3)[Man(a1-6)]Man(a1-6)[Man(a1-2)Man(a1-3)]Man(b1-4)GlcNAc(b1-4)GlcNAc
Outline: as §1

[18] = target: Man(a1-2)Man(a1-6)[Man(a1-3)]Man(a1-6)[Man(a1-2)Man(a1-2)Man(a1-3)]Man
Outline: as §1

[19] = target: Man(a1-2)Man(a1-6)[Man(a1-3)]Man(a1-6)[Man(a1-2)Man(a1-2)Man(a1-3)]Man(b1-4)GlcNAc(b1-4)GlcNAc
Outline: as §1

Man(a1-3)[Man(a1-6)]Man = target: Man(a1-3)[Man(a1-6)]Man
Outline: as §1

[20] = target: Man(a1-3)[Man(a1-6)]Man(a1-6)[Man(a1-2)Man(a1-3)]Man(b1-4)GlcNAc(b1-4)GlcNAc
Outline: as §1

[21] = target: Man(a1-3)[Man(a1-6)]Man(a1-6)[Man(a1-3)]Man
Outline: as §1

[22] = target: Man(a1-3)[Man(a1-6)]Man(a1-6)[Man(a1-3)]Man(b1-4)GlcNAc(b1-4)GlcNAc
Outline: as §1

[23] = target: Man(a1-3)[Man(a1-6)]Man(b1-4)GlcNAc(b1-4)GlcNAc
Outline: as §1

Man(a1-6)Man = target: Man(a1-6)Man
Outline: as §1

Man(b1-4)GlcNAc = target: Man(b1-4)GlcNAc
Outline: as §1

Neu5Ac(a2-3)Gal = target: Neu5Ac(a2-3)Gal
Outline: as §1

[24] = target: Neu5Ac(a2-3)Gal(b1-3)GalNAc
Outline: as §1

[25] = target: Neu5Ac(a2-3)Gal(b1-3)GalNAc(b1-3)Gal(a1-4)Gal(b1-4)Glc
Outline: as §1

[26] = target: Neu5Ac(a2-3)Gal(b1-3)GalNAc(b1-3)Gal(b1-4)GlcNAc
Outline: as §1

[27] = target: Neu5Ac(a2-3)Gal(b1-3)GalNAc(b1-4)[Neu5Ac(a2-3)]Gal(b1-4)Glc
Outline: as §1

[28] = target: Neu5Ac(a2-3)Gal(b1-3)GalNAc6S
Outline: as §1

[29] = target: Neu5Ac(a2-3)Gal(b1-3)GlcNAc
Outline: as §1

[30] = target: Neu5Ac(a2-3)Gal(b1-3)GlcNAc(b1-3)Gal(b1-3)GlcNAc
Outline: as §1

[31] = target: Neu5Ac(a2-3)Gal(b1-3)GlcNAc6S
Outline: as §1

[32] = target: Neu5Ac(a2-3)Gal(b1-3)[Fuc(a1-4)]GlcNAc
Outline: as §1

B1: MD-2 (Homo sapiens) (protein)
chain: MLPFLFFSTLFSSIFTEAQKQYWVCNSSDASISYTYCDKMQYPISINVNPCIELKGSKGLLHIFYIPRRDLKQLYFNLYITVNTMNLPKRKEVICRGSDDDYSFCRALKGETVNTTISFSFKGIKFSKGKYKCVVEAISGSPEEMLFCLEFVILHQPNSN
- glycan array binding signal (z-score) (GlcNAc(b1-3)Gal(b1-4)Glc): -0.35
- glycan array binding signal (z-score) [1]: -0.134
- glycan array binding signal (z-score) [2]: 0.006
- glycan array binding signal (z-score) (GlcNAc(b1-3)GalNAc): -0.327
- glycan array binding signal (z-score) (GlcNAc(b1-3)Man): -0.282
- glycan array binding signal (z-score) [3]: -0.273
- glycan array binding signal (z-score) [4]: 0.092
- glycan array binding signal (z-score) [5]: -0.385
- glycan array binding signal (z-score) [6]: -0.235
- glycan array binding signal (z-score) (GlcNAc(b1-4)GlcNAc): -0.346
- glycan array binding signal (z-score) [7]: -0.269
- glycan array binding signal (z-score) [8]: 4.23
- glycan array binding signal (z-score) [9]: 5.59
- glycan array binding signal (z-score) [10]: -0.369
- glycan array binding signal (z-score) [11]: -0.164
- glycan array binding signal (z-score) (GlcNAc(b1-6)GalNAc): -0.474
- glycan array binding signal (z-score) (GlcNAc3Prop(b1-4)GlcNAc): -0.375
- glycan array binding signal (z-score) (Kdn(a2-3)Gal(b1-3)GlcNAc): -0.332
- glycan array binding signal (z-score) (Kdn(a2-3)Gal(b1-4)GlcNAc): -0.223
- glycan array binding signal (z-score) [12]: -0.476
- glycan array binding signal (z-score) [13]: -0.388
- glycan array binding signal (z-score) (Man(a1-2)Man(a1-3)Man): -0.386
- glycan array binding signal (z-score) [14]: -0.391
- glycan array binding signal (z-score) [15]: -0.389
- glycan array binding signal (z-score) [16]: 0.372
- glycan array binding signal (z-score) [17]: -0.264
- glycan array binding signal (z-score) [18]: -0.375
- glycan array binding signal (z-score) [19]: -0.319
- glycan array binding signal (z-score) (Man(a1-3)[Man(a1-6)]Man): -0.423
- glycan array binding signal (z-score) [20]: -0.059
- glycan array binding signal (z-score) [21]: -0.348
- glycan array binding signal (z-score) [22]: 0.116
- glycan array binding signal (z-score) [23]: -0.335
- glycan array binding signal (z-score) (Man(a1-6)Man): 0.081
- glycan array binding signal (z-score) (Man(b1-4)GlcNAc): -0.047
- glycan array binding signal (z-score) (Neu5Ac(a2-3)Gal): -0.167
- glycan array binding signal (z-score) [24]: 0.056
- glycan array binding signal (z-score) [25]: -0.444
- glycan array binding signal (z-score) [26]: -0.222
- glycan array binding signal (z-score) [27]: -0.293
- glycan array binding signal (z-score) [28]: 0.195
- glycan array binding signal (z-score) [29]: -0.308
- glycan array binding signal (z-score) [30]: -0.361
- glycan array binding signal (z-score) [31]: 0.221
- glycan array binding signal (z-score) [32]: -0.38
